Experimental data reported in a compilation of properties of binary mixtures (doi:10.1016/j.fluid.2020.112621).
The densities may have been worked out from excess volumes.

Assay: xn = mol fraction of the nth substance listed
Conditions: 101 kPa

CC(=O)[O-].CCCC[NH2+]CCO + CCCC[n+]1ccn(C)c1.O=S(=O)([N-]S(=O)(=O)C(F)(F)F)C(F)(F)F
mass density [kg/m3]
Conditions | x1 = 0.1012 | x1 = 0.2257 | x1 = 0.3002 | x1 = 0.423 | x1 = 0.4998 | x1 = 0.6018 | x1 = 0.6987 | x1 = 0.8008 | x1 = 0.901 | x1 = 1
278.15 K | – | – | – | – | – | – | – | – | – | 1028.6
283.15 K | – | 1387.2 | 1362.8 | 1320.8 | 1291.7 | 1249 | 1204.6 | – | 1091.9 | –
288.15 K | – | 1382.6 | – | 1316.3 | 1287.2 | 1244.7 | 1200.5 | – | 1088.3 | 1021.7
293.15 K | – | 1378 | 1354.7 | 1311.9 | 1282.9 | 1240.5 | 1196.4 | 1143.5 | 1084.7 | 1018.3
298.15 K | – | – | 1350.4 | 1307.5 | 1278.6 | 1236.3 | 1192.2 | – | – | –
303.15 K | – | 1368.8 | 1345.9 | 1303.1 | – | 1232.1 | 1188.2 | – | 1077.2 | 1011.2
308.15 K | 1399 | 1364.2 | – | 1298.7 | 1270 | 1227.9 | 1184.1 | 1131.6 | 1073.4 | –
313.15 K | 1395 | 1359.5 | 1336.9 | 1294.3 | – | 1223.8 | – | – | – | –
318.15 K | 1390.7 | – | 1332.3 | 1289.9 | 1261.4 | 1219.6 | – | 1123.9 | – | 1000.4
323.15 K | 1386.1 | 1350.3 | 1327.7 | 1285.5 | 1257 | 1215.4 | – | 1120 | 1062.2 | 997.1
328.15 K | 1381.5 | – | 1323.2 | 1281 | 1252.6 | – | 1167.9 | 1116.1 | – | 993.4
333.15 K | 1376.8 | 1341 | 1318.6 | 1276.5 | 1248.2 | 1206.9 | 1163.8 | 1112.1 | 1054.7 | 989.8
338.15 K | 1372.1 | 1336.3 | 1313.9 | 1272.1 | 1243.8 | 1202.5 | – | 1108.1 | 1050.9 | 986.1
343.15 K | 1367.4 | – | 1309.3 | 1267.6 | – | 1198.2 | 1155.4 | 1104.1 | – | –
348.15 K | 1362.7 | 1327 | 1304.7 | – | 1234.9 | 1194 | 1151.2 | 1100 | 1043.1 | 978.7
353.15 K | 1358 | 1322.3 | 1300.1 | 1258.5 | 1230.4 | 1189.6 | 1146.9 | 1095.9 | – | –
358.15 K | 1353.3 | 1317.6 | – | – | – | 1185.3 | 1142.7 | 1091.8 | 1035.2 | 971
363.15 K | 1348.6 | 1312.9 | 1290.8 | – | 1221.4 | 1180.9 | 1138.4 | 1087.6 | 1031.1 | –
368.15 K | 1343.9 | 1308.3 | 1286.1 | 1244.8 | 1216.9 | 1176.4 | 1134 | – | 1027.1 | –
373.15 K | 1339.3 | 1303.6 | – | – | – | 1172 | 1129.7 | 1079.2 | 1023 | –
